In assay [1] the test system is Botrytis cinerea. The experiment in a line: microbe, parasite or virus in culture. Conditions: read-out: % Control BOC.
The test system of assay [2] is Phytophthora capsici. The assay can be described thus: In-vitro plant disease test, PHY. Conditions: read-out: % Control PHY. The source says:
PHY Phytophthora capsici (Oomycete)
(§1) 1 week old: PYU, PHY, RHI; b. […] 3 weeks old: PSH, VEN.
(§2) There are two replications per treatment.
(§3) There are 2 replicates per treatment.

Assay [3] relates to Cochliobolus sativus. The assay can be described thus: In-vitro plant disease test, HEL. Format: cell-based. Conditions: Bipolaris sorokiniana, read-out: % Control HEL.
Assay [4] relates to Pythium ultimum. The assay can be described thus: In-vitro plant disease test, PYU. The conditions noted are these: Globisporangium ultimum, read-out: % Control PYU.
From the text: PYU Pythium ultimum (Oomycete)
as §1, §2, §3

Assay [5] deals with Septoria nodorum. The experiment in a line: In-vitro plant disease test, SEP. The conditions noted are these: Parastagonospora nodorum, read-out: % Control SEP.
From the text: SEP Septoria nodorum (Ascomycete)
as §1, §2, §3

SMILES strings stand for the structures.

As to `CC1(C)C(=O)N(CC#CI)C(=O)N1CC#CI` [Compound 11], the inhibition of growth at 25 ppm in assay [1] is 0%; in assay [2] (25 PPM), 0%; in assay [4] (25 PPM) it was 100%; in assay [5] (25 PPM) it was 100%. In addition, the inhibition of growth at 50 ppm in assay [1] turned out to be 95%; in assay [2] (50 PPM), 100%; in assay [3], 100%; in assay [4] (50 PPM) it was 100%; in assay [5] (50 PPM), 100%.

For the compound `CC1(C)NC(=O)N(CC#CI)C1=O` [Compound 12], in assay [1], the inhibition of growth at 25 ppm was 0%.
